Results published in PubChem BioAssay AID1345082 (National Center for Advancing Translational Sciences (NCATS), 2018).
Several values for one entry are separate records, joined by “and”; a condition that tells them apart may be missing. Identical values can stand only once. The whole screen tested about 94,000 compounds, of which about 4,000 (4.3%) were called active. This list was built around the results that the source calls inconclusive (neither active nor inactive); the mix of calls is not that of the screen. Calls come from the whole dose curve; as a rule, active = well fitted inhibition curve with a large enough effect; inconclusive = small, poorly fitted or top-dose-only effect; inactive = no such curve, though single readings can be large or run the other way. Potencies beside an inconclusive call are fits to weak or partial responses and may not hold up.

Experiment: Cytotoxic Profiling in NIH 3T3 Cell Line of Diverse Libraries Using Quantitative High-Throughput Screening; note: nearly all actives have a fitted effect of over 55% in size
Conditions: NIH 3T3 viability, CellTiter-Glo ATP luminescence, 48-72 h; series mostly up to 96.7 µM
In short: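 First NIH 3T3 cells are plated at 400 cells/well; next compound is pinned in; then plates incubate 48 or 72 hr at 37 °C; finally CellTiter-Glo is added and luminescence read after 10 min.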
Potency is the fitted concentration of half-maximal effect; tags give direction and shape of the fitted curve.

Row | SMILES | Potency
1 | O=C(Nc1ccc(F)cc1)c1ccnc2[nH]ccc12 | inconclusive: 112 µM [inhibitor, partial curve]
2 | O=S(=O)(c1ccccc1)N1CCC(CCOc2ccccc2)C1 (stereo not drawn) | inconclusive: 39.8 µM [inhibitor, partial curve, poor fit]
3 | CC1(c2ccccc2)N(Cc2ccccc2)C(=O)OC12CCN(Cc1cccc(C#N)c1)CC2 (stereo not drawn) | inactive
4 | CN(Cc1ccccc1)C(=O)C1(C)COCc2cnc(Nc3ccccc3)nc21 (stereo not drawn) | inconclusive: 100 µM [inhibitor, single point]
5 | CCNC(=O)CCc1c(C)nn(-c2ccccc2C)c1Oc1ccccc1F | inconclusive: 50.1 µM [inhibitor, partial curve, poor fit]
6 | FC1(F)CN[C@H](c2nc(-c3cccnc3)no2)C1 | inactive
7 | O=C(NC1CC1)c1ccc2nnc(-c3cc[nH]c3)n2c1 | inactive
8 | O=C(NCc1ccccc1)[C@@H]1CCCN1c1nccc(Nc2ccccc2Cl)n1 | inconclusive: 44.7 µM [inhibitor, partial curve, poor fit]
9 | Cn1cccc1C(=O)N[C@H]1C[C@H]2C(=O)Nc3ccc(/C=C/c4ccccc4)cc3C(=O)N2C1 | inconclusive: 50.1 µM [inhibitor, partial curve]
10 | O=C(c1ccc(Cl)cc1)N1CCC(n2cc(-c3ccncc3)[nH]c2=O)CC1 | inactive
11 | CCC(=O)N(C1CCOCC1)C1CCN(S(=O)(=O)c2ccc(OC)cc2)CC1 | inactive
12 | CCc1nc2c(c(-c3ccc(Cl)cc3)n1)CCN([S+](=O)([O-])c1ccccc1)CC2 | inconclusive: 50.1 µM [inhibitor, partial curve, poor fit]
13 | Cc1nc(-c2c3n(c(=O)n(Cc4ccccc4C)c2=O)CCCCC3)no1 | inconclusive: 79.4 µM [inhibitor, partial curve, poor fit]
14 | CN1Cc2nc(OCc3ccc(F)cc3)ccc2OCC1=O | inconclusive: 100 µM [inhibitor, partial curve, poor fit]
15 | O=C(c1ccco1)N1CCC2(CC1)CN(Cc1ccccc1)CC2CO (stereo not drawn) | inactive
16 | COCc1nc2nc(-c3ccccc3)c(Nc3ccc(F)cc3)cc2n1C | inconclusive: 63.1 µM [inhibitor, partial curve, poor fit]
17 | Cc1noc(C)c1CN1CCc2nc(C(=O)Nc3cccc(C(F)(F)F)c3)oc2CC1 | inconclusive: 70.8 µM [inhibitor, partial curve, poor fit]
18 | Brc1ccc(CN2CCC(c3nc4ccncc4[nH]3)C2)cc1 (stereo not drawn) | inconclusive: 11.2 µM [inhibitor, partial curve] and inconclusive: 20 µM [inhibitor, full curve]
